The values that follow come from PubChem BioAssay (NCATS).

The test in a line: qHTS Assay for Lipid Storage Modulators (AID 1519). Conditions: Drosophila S3 cells, BODIPY lipid droplet/cell ratio, laser cytometry, cells loaded with oleic acid. An outline of the steps: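 Cells seeded at 5,000 per well were treated with compounds over a concentration series and loaded with oleic acid (400 uM, as added). Lipid droplet fluorescence (488 nm excitation, 500-530 nm channel) was read by laser-scanning cytometry and normalized to 20 uM Triacsin C.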

[1] abbreviates: measured here: cell count channel max response.
Setting [2] is: measured here: lipid (BODIPY) channel AC50.
Setting [3] is: measured here: lipid channel max response.
[4] abbreviates: measured here: cell number channel AC50.

Where “and” joins values, the source holds several entries; their conditions need not be identical. Identical values can stand only once. The list shows a part of the results. Shown are side measurements of this screen, not its main read-out; they come without a call. The list favours compounds with an active or inconclusive main result. Words in brackets tell the shape of the fitted curve; partial curves, single points and poor fits give uncertain potencies.
Tags describe the fitted curve by direction and shape.

As for `C[n+]1c2cc(N)ccc2cc2ccc(N)cc21`, the max response under setting [1] was -19.6% and the max response under setting [3] is -51.3%. The concentration at half-maximal activity (AC50) (in general, the midpoint of the concentration-response curve, whichever way the signal moves) under setting [2] was 14.1 µM [falling, single point].

On to `CCC(C)C(=O)OC1C[C@@]2(C)C(c3ccoc3)OC(=O)CC23OC2(C)OC34C(OC(=O)C(C)C)[C@]3(O)C(OC(=O)C5(C)OC5C)[C@]5(C)CC3(O)[C@](C)(C5CC(=O)OC)C14O2` (some centres undefined), for which the max response by setting is: under setting [1], -1.99%; under setting [3], -32.8%. Under setting [2], the AC50 was 15.8 µM [falling, single point].

Turning to `CC(CO)NC(=O)C1C=C2c3cccc4[nH]cc(c34)C[C@H]2N(C)C1` (some centres undefined), the max response is, setting by setting: under setting [1], 26.1%; under setting [3], 44.4%. The AC50 under setting [2] was 35.5 µM [rising, single point].

Regarding `O=[N+]([O-])OC1CO[C@H]2C(O[N+](=O)[O-])COC12` (some centres undefined), the max response runs as follows: under setting [1], 25.5%; under setting [3], 41.9%. Also, the AC50 under setting [2] was 8.91 µM [rising, partial curve].

Consider `COc1cc2c(cc1OC)C(C)NCC2` (centres undefined), for which the max response by setting is: under setting [1], -17.4%; under setting [3], -22.7%. Also, under setting [4], the AC50 was 20 µM [rising, single point].

Turning to `CN(C(=O)Cc1ccccc1)[C@H](CN1CCCC1)c1ccccc1`, the max response amounted to 28.7% under setting [1] and 30.9% under setting [3]. For the same compound, the concentration at half-maximal activity (AC50) under setting [2] is 7.94 µM [rising, partial curve, poor fit].

With `C[C@@]12C=CC(=O)C=C1CCC1C2CC[C@]2(C)C(=O)CCC12` (some centres undefined), the max response reads like this: under setting [1], 24.1%; under setting [3], 33.6%. Besides, the concentration at half-maximal activity (AC50) under setting [2] was 0.224 µM [rising, full curve].

With `O[N+]1=CC=CCC1=S.On1ccccc1=S.[Zn]`, the max response under setting [1] is -8.58% and the max response under setting [3] was -60.4%. For the same compound, the AC50 under setting [2] was 2.51 µM [falling, full curve, poor fit].

With `COc1ccc(-c2oc3cc(OC)ccc3c(=O)c2O)cc1`, the max response came out at 68.5% under setting [1] and 89.7% under setting [3]. The concentration at half-maximal activity (AC50) under setting [4] is 35.5 µM [rising, single point].

`NC1C[C@H]1c1ccccc1` (some centres undefined): the max response by setting is: under setting [1], 39.3%; under setting [3], 64.7%. Further, under setting [2], the concentration at half-maximal activity (AC50) is 39.8 µM [rising, single point].

As for `CP(=O)(O)CCCN`, the max response under setting [1] is -21.6% and the max response under setting [3] was -22.6%. In addition, the AC50 under setting [4] was 0.141 µM [falling, full curve, poor fit].

`C[N+]1(C)CCOC(O)(c2ccc(-c3ccc(C4(O)C[N+](C)(C)CCO4)cc3)cc2)C1` (centres undefined): the max response by setting is: under setting [1], 43.4%; under setting [3], 43.6%. The AC50 under setting [4] is 35.5 µM [rising, single point].

As for `CN(C)C1C(=O)C(C(N)=O)=C(O)[C@@]2(O)C(=O)C3=C(O)c4c(O)cccc4[C@@](C)(O)C3[C@H](O)C12` (some centres undefined), the max response amounted to 5.61% under setting [1] and 18.5% under setting [3]. Also, the AC50 under setting [2] was 25.1 µM [rising, single point].

Turning to `O=C(Nc1ccccc1)N1CCC2(CC1)CCN(C(=O)Oc1ccccc1)CC2`, the max response by setting is: under setting [1], 5.09%; under setting [3], 18.4%. The AC50 under setting [2] was 0.0355 µM [rising, full curve, poor fit].

As for `O=C(O)c1ccccc1-c1c2cc(Br)c(=O)cc-2oc2[c]([Hg])c(O)c(Br)cc12`, the max response reads like this: under setting [1], -68.4% and -108%; under setting [3], -88.5% and -108%. Moreover, the half-maximal activity concentration (AC50) under setting [4] is 14.1 µM [falling, partial curve, poor fit] and the AC50 under setting [2] was 14.1 µM [falling, partial curve, poor fit].

With `Cc1ccc(C[N+](C)(C)C)o1`, the max response is, setting by setting: under setting [1], 8.11%; under setting [3], 17.4%. Also, the concentration at half-maximal activity (AC50) is, setting by setting: under setting [4], 22.4 µM [rising, single point]; under setting [2], 15.8 µM [rising, single point].

For the compound `COc1ccc2cc1Oc1ccc(cc1)C[C@H]1c3cc(c(OC)cc3CCN1C)Oc1c(OC)c(OC)cc3c1[C@H](C2)N(C)CC3`, the max response under setting [1] was determined as 66.4% and the max response under setting [3] turned out to be 75.6%. Further, the AC50 is 12.6 µM [rising, full curve] under setting [4] and 12.6 µM [rising, full curve] under setting [2].

Take `O=C1C=C2C=C[C@@H]3C[C@@]2(O1)[C@H]1CCCCN31`: the max response was found to be 45.6% under setting [1] and 53.1% under setting [3]. In addition, the AC50 is, setting by setting: under setting [4], 35.5 µM [rising, partial curve, poor fit]; under setting [2], 31.6 µM [rising, partial curve, poor fit].

For `CCOC(=O)c1ncn2c1[C@H]1CCCN1C(=O)c1cc(OC)ccc1-2`, the max response under setting [1] was found to be 56.3% and the max response under setting [3] was 68.7%. Besides, the AC50 is, setting by setting: under setting [4], 3.98 µM [rising, full curve]; under setting [2], 4.47 µM [rising, full curve].

`C[C@H](CCC(=O)O)[C@H]1CC[C@@H]2[C@H]3CC[C@H]4C[C@H](O)CC[C@]4(C)[C@@H]3CC[C@@]21C`: the max response stood at 57.8% under setting [1] and 73.1% under setting [3]. Also, the concentration at half-maximal activity (AC50) by setting is: under setting [4], 39.8 µM [rising, single point]; under setting [2], 39.8 µM [rising, single point].

Consider `CC(C)=CCCC1(C)C=Cc2c(O)c3c(c(CC=C(C)C)c2O1)OC12C(=CC4CC1C(C)(C)OC2(C/C=C(/C)C(=O)O)C4O)C3=O` (centres undefined), for which the max response was -55.2% under setting [1] and -100% under setting [3]. Further, the concentration at half-maximal activity (AC50) runs as follows: under setting [4], 39.8 µM [falling, single point]; under setting [2], 25.1 µM [falling, partial curve].

`Clc1cncc(N2CCNCC2)n1`: the max response is, setting by setting: under setting [1], 45.5%; under setting [3], 56.9%. In addition, the half-maximal activity concentration (AC50) is, setting by setting: under setting [4], 15.8 µM [rising, partial curve, poor fit]; under setting [2], 14.1 µM [rising, partial curve, poor fit].
